The record followed here is PubChem BioAssay AID488969 (Vanderbilt High Throughput Screening Facility, 2010).

Over roughly 110,000 compounds, “z-score” has its median near -0.1; the highest 2% begin near 2. The list shows a part of the results.

In this assay the target is Metabotropic glutamate receptor 8 (Rattus norvegicus) (UniProt P70579). Put plainly: rat mGluR8 modulators via GIRK flux, primary screen, cell-based, thallium flux, HTS (AID 488969). The following applies: HEK293 rat mGluR8, GIRK (G protein-gated inwardly rectifying potassium channel) thallium flux, FluoZin2; at 10 µM; stronger effect = higher value; submaximal glutamate (EC20) added with thallium.
Sequence of UniProt P70579 (P70579 whole entry, looked up): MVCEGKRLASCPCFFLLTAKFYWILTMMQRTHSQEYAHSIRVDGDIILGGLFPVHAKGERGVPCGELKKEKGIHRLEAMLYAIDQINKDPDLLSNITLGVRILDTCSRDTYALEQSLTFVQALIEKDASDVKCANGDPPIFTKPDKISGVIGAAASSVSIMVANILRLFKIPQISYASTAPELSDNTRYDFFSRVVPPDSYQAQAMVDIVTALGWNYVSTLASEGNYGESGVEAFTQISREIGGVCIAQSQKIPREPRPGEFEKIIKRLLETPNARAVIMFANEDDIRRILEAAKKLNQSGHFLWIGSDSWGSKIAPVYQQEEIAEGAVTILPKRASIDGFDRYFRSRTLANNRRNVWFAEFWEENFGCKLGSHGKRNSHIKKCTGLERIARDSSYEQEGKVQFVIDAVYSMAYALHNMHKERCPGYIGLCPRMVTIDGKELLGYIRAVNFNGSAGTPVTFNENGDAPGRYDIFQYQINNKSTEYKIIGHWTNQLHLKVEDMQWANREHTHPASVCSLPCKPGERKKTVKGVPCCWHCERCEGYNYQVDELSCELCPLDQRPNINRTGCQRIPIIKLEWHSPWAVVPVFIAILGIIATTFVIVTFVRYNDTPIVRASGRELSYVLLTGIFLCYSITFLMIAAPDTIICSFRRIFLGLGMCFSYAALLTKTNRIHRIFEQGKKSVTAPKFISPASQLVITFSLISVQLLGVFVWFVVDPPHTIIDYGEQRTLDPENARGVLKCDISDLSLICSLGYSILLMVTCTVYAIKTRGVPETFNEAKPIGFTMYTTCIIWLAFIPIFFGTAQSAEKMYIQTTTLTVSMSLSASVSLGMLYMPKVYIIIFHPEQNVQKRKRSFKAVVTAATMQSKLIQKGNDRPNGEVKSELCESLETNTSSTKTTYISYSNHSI
As for `Cc1c(C(C)(C)C)c(C=S)n2ccccc12`, the z-score was -0.503.
Take `CCCNc1ccc(S(=O)(=O)N(C(C)C)C(C)C)cn1`: the z-score is -0.175.
As to `O=C1COc2ccc(C(=O)CSc3nnc(Cc4cccs4)n3-c3ccc(Cl)cc3)cc2N1`, the z-score is 0.154.
`COc1ccc(C(=O)/C(=C\c2ccco2)N2C=CC=CC2=C(C#N)C#N)cc1` returned a z-score of 0.26.
Regarding `O=C(CCn1nc(-c2ccc(Cl)cc2)ccc1=O)NCCCN1CCCCCC1`, the z-score is -0.866.
Regarding `CCn1ncc(/C=N\NC(=O)c2ccc3c(c2)c(C)c(C)n3Cc2ccccc2)c1C`, the z-score was -0.321.
The compound `COc1ccc(NS(=O)(=O)c2ccc(N)c(C(=O)O)c2)cc1` registered a z-score of 0.525.
In turn, `Nc1ccc2c3c(cccc13)CC2` had a z-score of 0.094.
With `Cc1ccc(/C=N/NC(=O)CSc2nnc(-c3ccc(Cl)cc3)n2-c2ccc(Cl)cc2)o1`, the z-score is -0.0979.
With `Cc1ccc(-c2ccc(=O)n(CC(=O)Nc3cccc(C(=O)N4CCN(C)CC4)c3)n2)cc1`, the z-score stood at 0.353.
For the compound `Cc1ccc(-n2nnnc2SCC(=O)c2c(N)n(CC(C)C)c(=O)n(C)c2=O)cc1`, the z-score stood at 0.951.
With `CC1(CC(=O)N/N=C/c2cc(Br)c(O)cc2O)OCCO1`, the z-score was 0.149.
Turning to `Cc1nnn(C23CC4CC(CC(C4)C2)C3)n1`, the z-score was -0.708.
`CCOC(=O)c1sc(NC(=S)NC(=O)c2ccccc2Cl)c(C(=O)OCC)c1C` yielded a z-score of 0.214.
With `O=[N+]([O-])c1cccc(S(=O)(=O)Nc2nc3ccccc3nc2Nc2cccc(S(=O)(=O)N3CCCCC3)c2)c1`, the z-score was -0.505.
With `COc1ccc(Cc2nc(C(=O)Nc3ccc(Cl)cc3)cs2)cc1`, the z-score is -0.178.
For `CC(C)CC(NC(=O)C1CCC(C)CC1)C(=O)N1CCN(c2ccccn2)CC1` (configuration not stated), the z-score was -0.0421.
`COc1cc(C(C[N+](=O)[O-])c2c(C)[nH]c3ccccc23)cc(OC)c1OC` (configuration not stated): the z-score was -0.538.
For the compound `O=C(Nc1cccc(OC(=O)c2cccnc2)c1)c1cccnc1`, the z-score was -0.255.
Consider `O=C(COC(=O)CCc1nc2ccccc2n1-c1ccccc1)Nc1ccc(N2CCCCC2)cc1`, for which the z-score was -0.204.
The compound `O=C(COC(=O)CCC1CCCC1)Nc1nc2c(F)c(F)c(F)cc2s1` registered a z-score of 2.48.
Turning to `CC(C)(C)n1nc2c(c1NC(=O)Cc1cccc3ccccc13)CS(=O)C2` (configuration not stated), the z-score was 0.219.
For `CC1(C)Cc2cccc(OCC(N)=O)c2O1`, the z-score stood at 0.0489.
For the compound `COc1ccc2c(c1)CCc1c(C(=O)Nc3ccn(Cc4ccc(C)cc4)n3)noc1-2`, the z-score is -0.0713.
In the case of `CC(C)CNC(=O)c1ccc(COc2ccc(Cl)cc2Cl)o1`, the z-score was -0.116.
As to `CN(C)c1ccc(C(=O)OCc2ccc(Br)cc2)cc1`, the z-score is -0.588.
As for `NC(=S)N/N=C/c1ccc(-c2cc(Cl)ccc2Cl)o1`, the z-score came to 2.21.
On to `COC(=O)c1ccc(NS(=O)(=O)N(C)C)cc1`, for which the z-score came out at 0.388.
In turn, `CC(=O)N(CC1CCCO1)C1(C(=O)NC2CCCC2)CCCCC1` (configuration not stated) came in with a z-score of 0.278.
`Cc1ccc(NC(=O)CSCCc2ccccn2)nc1` returned a z-score of 0.022.
As to `Cc1ccc2cc(CN(CCN3CCOCC3)Cc3nnnn3Cc3ccco3)c(=O)[nH]c2c1C`, the z-score was -0.297.
As for `CCOc1nc(Nc2ccc(OC)c(Cl)c2)nc(OCC)n1`, the z-score was -0.625.
As for `COc1ccc(-n2c(NC(=O)c3ccco3)c(C#N)c3nc4ccccc4nc32)cc1`, the z-score was -0.0793.
To `CC(=O)Nc1ccc(S(=O)(=O)N2CCN(c3nc(NC4CCCC4)c4ccccc4n3)CC2)cc1` belongs -0.56.
The value for `Cc1nnc(NC(=O)CSc2nnc(CNC(=O)C34CC5CC(CC(C5)C3)C4)n2C2CCCCC2)s1` was -0.17; that for `CC(=O)NC1C(=O)N(C)c2ccc(Br)cc21` (configuration not stated) was 0.175.
On to `CCCCN(Cc1cc2ccccc2[nH]c1=O)C(=O)c1ccccn1`, for which the z-score was 0.0191.
Compound `Brc1cccc(-c2n[nH]c(-c3ccccc3)n2)c1` gave a z-score of 0.531.
Take `CCOc1cc(S(=O)(=O)NC2CC(C)(C)NC(C)(C)C2)ccc1F`: the z-score was -0.0984.
To `COc1ccc(Nc2nc(-c3sc(NC(C)=O)nc3C)cs2)cc1` belongs -1.8; to `COc1ccc(NC(=O)CSc2nnc(C3CCCCC3)o2)c(OC)c1`, 1.08.
The value for `CN(CC(=O)Nc1ccc(F)c(F)c1)S(=O)(=O)c1cccc2nsnc12` was 0.131; that for `CC(C(=O)NC1CCCc2ccccc21)N1CCN(c2ccc(F)cc2)CC1` (configuration not stated) was -0.363.
As to `COc1ccc(-n2ncc3c(NCc4cccs4)ncnc32)cc1`, the z-score is -2.44.
`Cc1cc(C)cc(NC(=O)CSc2nc3c(oc4ccccc43)c(=O)n2-c2ccccc2)c1`: the z-score is -0.312.
To `CN(CCCC(=O)Nc1ccncc1)S(=O)(=O)c1ccc(Cl)cc1` belongs -0.0633.
`COc1cc(NS(=O)(=O)c2cccc3nsnc23)cc(OC)c1`: the z-score is -0.141.
For the compound `COc1cccc(Nc2nc(-c3cccc(N4C(=O)c5ccccc5C4=O)c3)cs2)c1`, the z-score worked out at 0.0481.
Take `COc1ccc(CCNC(=O)Cc2ccc(OCc3ccccc3)c(OC)c2[N+](=O)[O-])cc1OCc1ccccc1`: the z-score was -0.238.
For `C/C(=N\OCC(=O)NCC(F)(F)F)c1cc2ccccc2o1`, the z-score is -0.212.
With `CCOc1ccc(S(=O)(=O)Nc2nc3ccccc3nc2N2CCN(C)CC2)cc1`, the z-score was -0.208.
As for `CC(C)NC(=O)c1cc(=O)n(C)c(=O)n1C`, the z-score was -0.189.
Take `O=C(CSc1nc(-c2ccco2)cc(C(F)(F)F)n1)Nc1ccc(C(=O)N2CCCCC2)cc1`: the z-score is -0.128.
In the case of `O=[N+]([O-])c1ccc(Oc2ccc(F)cc2)c2ccncc12`, the z-score is -0.992.
To `Clc1ccc(COn2c(-c3ccccc3)nc3ccccc32)cc1` belongs -0.356; to `Cc1occc1C(=O)NC(C)c1ccc2c(c1)OCO2` (configuration not stated), -0.214; to `CCOc1cccc(C(=O)Nc2nc(-c3ccc(S(=O)(=O)N4CCOCC4)cc3)cs2)c1`, -0.123.
Compound `O=C(NCC1CCCO1)c1cc(-c2ccncc2)nc2ccc(S(=O)(=O)N3CCOCC3)cc12` (configuration not stated) returned a z-score of 0.221.
In the case of `CCCN(CCC)c1nc(Cl)nc(NCc2ccco2)n1`, the z-score came out at 0.493.
To `O=C(/C=C/c1ccc(Cl)cc1Cl)Nc1ccc(CN2CCOCC2)cc1` belongs 0.397; to `COc1ccc(CC(=O)Nc2ccc(-c3nnc(-c4ccccc4)o3)cc2)cc1OC`, -0.886; to `O=C1Nc2ccccc2OC1CC(=O)N1CCOCC1` (configuration not stated), 1.04.
The value for `N#C/C(=C\c1cccn1-c1ccccc1)C(=O)NC1CCCCC1` was -0.217.
The value for `CCOC(=O)C(Sc1ncc(C#N)c(N)n1)C(C)C` (configuration not stated) was -0.396; that for `CCOC(=O)N1CCN(C(=O)c2ccc3nc(C)sc3c2)CC1` was -0.0643.
For the compound `COc1ccccc1C(=O)N/C(=C/c1ccc(Br)cc1)C(=O)NCCO`, the z-score is -0.435.
Take `CCc1ccc2[nH]c(=O)c(CN(Cc3ccccc3OC)Cc3nnnn3Cc3ccco3)cc2c1`: the z-score was -0.963.
The value for `COC(=O)c1c(-c2cccc(C)c2)csc1N` was -0.0967; that for `CN(c1ccccc1C(=O)Nc1ccc(S(=O)(=O)N2CCOCC2)cc1)S(=O)(=O)c1ccccc1` was -0.363.
As to `COC(=O)c1ccc(C(=O)Nc2cc(Cl)ccc2Cl)cc1NC(=O)c1ccccc1C`, the z-score worked out at 0.0158.
`CC1(C)Oc2ccc3ccc(=O)oc3c2/C(=C/N)C1=O` had a z-score of 0.0917.
As for `Nc1nc2ccc(S(=O)(=O)c3ccc4nc(N)sc4c3)cc2s1`, the z-score is -0.885.
Take `COc1ccc(/C=C(/CC(=O)Nc2ccccc2)c2nc3ccccc3s2)cc1`: the z-score is -0.206.
To `COC(=O)c1[nH]c(C)c(/C(O)=C2\C(=O)C(=O)N(CCN3CCOCC3)C2c2cccnc2)c1C` (configuration not stated) belongs 0.192.
As for `CCN(CC)C(=O)c1sc(NC(=O)c2cccnc2)c(C(=O)OC)c1C`, the z-score is -0.202.
The value for `O=C(OCCN=C1NS(=O)(=O)c2ccccc21)c1cccnc1` was 0.1; that for `Cc1nn2c(C)nc3sc4c(c3c2nc1=O)CC(C)(C)OC4` was -0.0171; that for `O=[N+]([O-])c1ccc(N2CCCC2)cc1NCc1ccccc1` was -0.6.
`CC1CCN(Cc2ccc(-c3nn[nH]n3)cc2)CC1` displayed a z-score of 0.274.
To `COc1ccc(Cc2nc(N)nc(N)n2)cc1` belongs -0.931; to `N#C/C(=N\Nc1ccc(S(=O)(=O)N2CCCCC2)cc1)C(N)=S`, 0.742.
To `CCN(CC)c1ccc(C=N/C(C#N)=C(\N)C#N)cc1` belongs -0.226; to `CC(=O)NC1(C(Cl)(Cl)Cl)Oc2ccccc2O1`, -0.0777; to `N=c1sccn1CC(=O)Nc1cc(Cl)ccc1Oc1ccccc1`, 1.02.
For the compound `CC1CCN(C(=O)c2ccc3c(c2NCCO)C(=O)c2ccccc2C3=O)CC1`, the z-score is -0.206.
Consider `COc1cc(S(=O)(=O)N2CCOCC2)ccc1NC(=O)COC(=O)C12CC3CC(CC(C3)C1)C2`, for which the z-score was -0.0192.
The value for `CCOC(=O)C1=C(Cn2cnc3ccccc32)NC(=O)NC1c1ccc(Cl)cc1` (configuration not stated) was -0.225; that for `COC(=O)c1ccc(COc2ccccc2/C=N/NS(=O)(=O)c2ccc(C)cc2)cc1` was 0.41.
As for `O=C(Nc1ccncc1)c1ccc2c(c1)C(=O)N(CC1CCCO1)C2=O` (configuration not stated), the z-score was -0.193.
Turning to `O=C1N=C(N2CCCC2)S/C1=C\c1cccc(Br)c1`, the z-score is -0.485.
`Cc1ccc(NS(=O)(=O)c2ccc(Cl)c(C(=O)O)c2)cc1S(=O)(=O)N1CCOCC1`: the z-score is -0.00682.
As for `CCn1c2ccccc2c2nn(C)c(=N)nc21`, the z-score came out at 0.551.
On to `Cc1ccc(NC(=O)NCC(c2cccnc2)N2CCOCC2)cc1` (configuration not stated), for which the z-score is -0.0311.
Consider `COc1ccccc1-c1c(C)nn2c(C)c(C(C)=O)cnc12`, for which the z-score was 0.0641.
Take `COC(=O)C1=C(C)N(C)C(=O)NC1c1cc(Cl)cc(Cl)c1OC` (configuration not stated): the z-score is -0.602.
`COC(=O)c1cc2sc(Cl)cc2n1Cc1nc(-c2ccccc2)oc1C` registered a z-score of 0.434.
For `CC(=O)NC(CCS(C)(=O)=O)C(=O)Nc1cccc(C(C)=O)c1` (configuration not stated), the z-score is -0.0267.
To `Cc1ccc2cc(CN(CC3CCCO3)S(=O)(=O)c3c(C)ccc4nsnc34)c(=O)[nH]c2c1` (configuration not stated) belongs -0.154; to `S=c1[nH]nc(-c2cccnc2)n1/N=C/C=C/c1ccccc1`, 0.244.
With `O=C(NCc1cccs1)C1CCCN(S(=O)(=O)c2cccc3cccnc23)C1` (configuration not stated), the z-score was -0.302.
Take `Cc1cccc(/C(N)=N/OC(=O)c2ccc(F)cc2)c1`: the z-score is 0.686.
The compound `O=C(Nc1ccc(N2CCOCC2)c(Cl)c1)c1cc(F)c(F)cc1Cl` registered a z-score of 0.879.
Consider `COc1ccc(CCNC2CC(=O)N(CCc3ccccc3)C2=O)cc1OC` (configuration not stated), for which the z-score worked out at 0.178.
As to `c1ccc(-c2nc3c(ccc4ccccc43)[nH]2)nc1`, the z-score was -1.42.
On to `CCOC(=O)C1=C(CSc2nc(-c3ccccc3)ccc2C#N)OC(N)=C(C#N)C1c1ccc(OC)cc1` (configuration not stated), for which the z-score stood at 0.0604.
With `CCOCCc1nnc(NC(=O)c2cccc(F)c2)s1`, the z-score is -0.243.
With `COc1ccc2c(OC)cc(-c3ccccc3)nc2c1`, the z-score was -1.03.
